Sequences with one replicate were seen in a single cluster, so their values are uncertain.
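Also: ATP exposure 15 min at 22 °C before imaging.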

The data set relates to ATP. Kind of data set: switch fluorescence ratio, 500 uM ATP over buffer (Cy3 cluster intensity, sum of 5 cycles each) (fold (ratio)); higher = stronger signal-on switching upon ATP binding; sequences stand for … in TCGTCGGCAGCGTCAGATGTGTATAAGAGACAGTTTTTTTTTTTTTTTTTTTTTTTTT…TC. To be noted: aptamer strand: ATP DNA aptamer (quencher-CACCTGGGGGAGTATTGCGGAGGAAGG + anchor), 100 nM annealed; ATP concentration: 500 uM; one replicate. The essentials: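 The quencher-labelled ATP aptamer, at 100 nM, was annealed to Cy3-labelled switching-strand clusters on a modified Illumina MiSeq flow-cell. The clusters were imaged in selection buffer, then after 15 min with 500 uM ATP at 22 °C, and this buffer/ATP cycle ran five times with NaOH stripping and re-annealing between runs. Per-cluster fluorescence ratios, summed target-cycle over summed buffer-cycle Cy3 intensity, were averaged per switch-domain sequence. Clusters outside 100-1000 RFU were excluded.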
In the case of TTCTAAAATA, the switch fluorescence ratio was 1.03.
Under AACAAATTCA stands 0.957.
As for GCGAAGGTAT, the switch fluorescence ratio was 1.
Under GCATGGATTG stands 0.946.
In the case of GTGCCAAGAC, the switch fluorescence ratio worked out at 2.26.
On to TTGCTGTAC, for which the switch fluorescence ratio came to 1.73.
The same measure for TTACCATTAT: 1.04; for TCCAAGTGTA: 1.03.
In the case of TCCTGTCTGG, the switch fluorescence ratio came to 0.985.
Under CTGACTGATT stands 1.02; under TTACGCGTG, 0.998; under ATTATGTGTT, 1.03.
Consider AGCGGATGAG, for which the switch fluorescence ratio is 1.01.
Under TGTTTACAGA stands 1; under GAGTTGACAG, 0.984; under CAGGTGGGCC, 1.01.
The same measure for TGTTCCTCCA: 1.71; for TCCAAGCAAG: 1.07; for CCTCTTGTGT: 1.04.
The same measure for CCACATTGGT: 1.02; for AGGGATAGGA: 0.996.
On to GTCGGCCGGC, for which the switch fluorescence ratio came to 1.02.
Under GTGGATGCTC stands 0.991; under GGCTGAGTGC, 1.02; under TCAAGCGCCA, 0.992.
With CAAAGTCGTT, the switch fluorescence ratio was determined as 0.995.
Under GGTAAATCGA stands 0.97; under CGAAGTGGT, 1.01.
Consider CTCAGATGTA, for which the switch fluorescence ratio amounted to 1.03.
Under TCAGTGTCAG stands 1.02; under TTTCGTGGCT, 1.03.
The same measure for CACTCTATCG: 0.979.
In the case of GTCATACATA, the switch fluorescence ratio was 1.03.
The same measure for GTGAATTTGC: 0.992; for AACGGTATAA: 1.09.
The same measure for TCAGAGATA: 0.931; for TAGGTGATCT: 1.04.
As for TTAAACTGTG, the switch fluorescence ratio worked out at 1.24.
Turning to CAAGGTTTTG, the switch fluorescence ratio came to 1.01.
The same measure for TTTACGGG: 1.01.
Regarding GCTGTATTGG, the switch fluorescence ratio came to 0.994.
In the case of GCGTATGAAC, the switch fluorescence ratio is 1.01.
Under TTCTCGGGCC stands 0.995.
Consider TTAACGTCCT, for which the switch fluorescence ratio was determined as 1.06.
As for CGGAACCAG, the switch fluorescence ratio came out at 1.05.
Consider TACTTTTCCC, for which the switch fluorescence ratio was 0.999.
GGCATTACAG: the switch fluorescence ratio was 0.989.
The same measure for ATGCAGTACA: 1.05.
With CACAAGATAA, the switch fluorescence ratio was determined as 1.05.
The same measure for AAAGGGTACC: 1.02; for AGTTCATGTT: 1; for GCCTGGTATC: 0.978.
In the case of TCAGGTGAG, the switch fluorescence ratio came to 1.28.
As for ACGGTGTGAC, the switch fluorescence ratio is 1.01.
ACACTAGTTT: the switch fluorescence ratio was found to be 1.01.
Under CCTGCAGTAG stands 5.33; under ATAGCAAAGA, 4.64.
The same measure for TCCCAAGTGT: 0.989.
Under CGTGCCCCGT stands 1.02; under TCACTCGTAA, 1.27.
As for ACCGGGGGTG, the switch fluorescence ratio is 1.1.
The same measure for CTTGGAAAAG: 0.995; for CAGTAGATGT: 1.03.
Take TATCTGCCTT: the switch fluorescence ratio turned out to be 1.5.
Turning to CGTAGTTTTT, the switch fluorescence ratio worked out at 0.973.
Under CTAGTGCGGG stands 0.988.
Under ACTGGAAAGC stands 0.951.
As for CAACGACCGA, the switch fluorescence ratio was 1.27.
For CCCCTAAGTG, the switch fluorescence ratio worked out at 2.61.
Under CCATCCCATT stands 1.07; under AGGGGGATT, 1.01; under TTTAGGCATA, 0.971.
The same measure for TAACGGGCA: 1.03.
Take TCCAAGGCTG: the switch fluorescence ratio stood at 0.987.
The same measure for CACCTGACCC: 1.34.
Take TTATGTCCCT: the switch fluorescence ratio is 1.01.
Regarding ACGCTAAGTA, the switch fluorescence ratio stood at 1.03.
ATGGTGT: the switch fluorescence ratio is 1.06.
Take TGATTTCAGC: the switch fluorescence ratio is 1.03.
As to AAGATCAGT, the switch fluorescence ratio amounted to 1.06.
GCTTGGGTAC: the switch fluorescence ratio is 1.02.
Under CGGCTGGGTG stands 1.05; under ATCATGTGGA, 0.992.
For ACTGTTTAGT, the switch fluorescence ratio was found to be 0.968.
For the sequence ACAACGTGAG, the switch fluorescence ratio was 1.02.
For GGTATGAGCT, the switch fluorescence ratio was 1.01.
The same measure for TTGTTGTGTC: 0.979; for CTGTCATAAT: 0.997.
Turning to ACTGTCTCTA, the switch fluorescence ratio worked out at 1.07.
Take CTTACGATGT: the switch fluorescence ratio was 1.03.
The same measure for AGATAGGGTT: 0.966; for TTGATCAACC: 1.07; for ATCTTCTAGG: 0.989.
In the case of GCTGGTCGTG, the switch fluorescence ratio is 0.994.
Regarding GTTTTAATAC, the switch fluorescence ratio was found to be 1.04.
The same measure for AAGCTCTACG: 1.03; for GGAGCCAGTT: 1.05; for TCTAGATCGT: 1.02.
With CTGGGGTCA, the switch fluorescence ratio is 0.988.
Consider AATGATGAAT, for which the switch fluorescence ratio is 1.01.
The same measure for GTTCGGAGAA: 1; for ACGGTTGTCT: 1.08; for GGGGGCTCTC: 1.01.
CCTTCATGAC: the switch fluorescence ratio is 1.64.
Under GCCCATGAGC stands 0.982.
Under TCCAATCAGA stands 0.938; under GGTTTTACCC, 1.04; under TGTTCTAACG, 0.989.
The same measure for AAGGTTTCCG: 1.09.
As for AATCAGTTAG, the switch fluorescence ratio turned out to be 1.01.
Take TGGAATAAGC: the switch fluorescence ratio stood at 0.978.
Under GCAACCCGTA stands 0.994; under TATTCTCGAT, 1.02; under TCCCCAAGAT, 1.06.
As for TGTGGATTCC, the switch fluorescence ratio amounted to 1.02.
As to GCTAAATTAG, the switch fluorescence ratio is 0.998.
As for ATTGGAAAGC, the switch fluorescence ratio came out at 1.03.
Under TACAGGTAGG stands 1.03.
The same measure for GGTTTATTAG: 1.02; for ATACGGTATC: 1.25.

The values are drawn from the supplement of paper PMC10126150.
